{"source": "ChEMBL document CHEMBL4888484", "about": "“Replenishing the malaria drug discovery pipeline: Screening and hit evaluation of the MMV Hit Generation Library 1 (HGL1) against asexual blood stage Plasmodium falciparum ,using a nano luciferase reporter read-out” (2022)", "note": "About 540 (0.36%) of roughly 150,000 compounds showed an effect of 50% or more. The list shows a part of the results."}
{"tested_on": "Plasmodium falciparum", "assay": "Primary screen in NF54 nanoGlo assay, in single point, at 2uM, 72h; a lower Z score goes with more inhibition", "format": "functional, Erythrocyte", "details": "timepoint 72 hour", "units": {"% Inhibition": "%"}}
{"smiles": "Cc1nnc(CCNC(=O)c2ccc(Cl)s2)s1", "% Inhibition": -26, "Z score": 2.43}
{"smiles": "O=C(Cc1ccc(F)cc1)NC1CCN(C(=O)c2cc(-c3ccccc3)n[nH]2)CC1", "% Inhibition": 8, "Z score": -0.98}
{"smiles": "C#CCN1C(=O)[C@H](c2c(-c3ccc(Cl)cc3)[nH]c3c2c(=O)[nH]c(=O)n3C)c2ccccc21", "% Inhibition": -8, "Z score": 1.28}
{"smiles": "N#CC1(NC(=O)CNc2ccccc2Oc2ccccc2)CCCC1", "% Inhibition": 2, "Z score": -0.43}
{"smiles": "Cc1ccc(NC(=O)c2ncn(C[C@H](O)c3ccc(F)cc3)n2)cc1", "% Inhibition": -7, "Z score": 0.83}
{"smiles": "Cc1ccnc(-c2n[nH]c(C(C)NC(=O)C3CCC(F)(F)C3)n2)c1", "note": "(stereo not drawn)", "% Inhibition": -6, "Z score": 1.1}
{"smiles": "CC(C)[C@H](C)NC(=O)CCn1cncn1", "% Inhibition": 4, "Z score": -0.44}
{"smiles": "Cc1nc(CCNS(=O)(=O)c2cc(Cl)cnc2N)cs1", "% Inhibition": 3, "Z score": -0.4}
{"smiles": "CN1CCN(CC(=O)Nc2ccc(Cc3cccc(C(N)=O)c3)nc2)CC1", "% Inhibition": -3, "Z score": 0.56}
{"smiles": "Cc1cnc(N2CCC3(CC2)[C@@H](C(=O)O)CC(=O)N3C)nc1N(C)C", "% Inhibition": 18, "Z score": -2.35}
{"smiles": "CC(C)(C)c1nnnn1CCO[C@@H]1CCCCO1", "% Inhibition": -10, "Z score": 1.87}
{"smiles": "Cc1ccc(-c2nc(CNC(=O)Cc3ccc(O)cc3)[nH]c2-c2ccccn2)cc1", "% Inhibition": -16, "Z score": 2.25}
{"smiles": "CN1CC(=O)N2CCN(Cc3ccc(Cl)o3)C[C@H]2C1=O", "% Inhibition": -4, "Z score": 0.86}
{"smiles": "COc1ccc(-c2cc3n(n2)CCC(=O)N3CC(=O)NCc2ccc(C)cc2)cc1", "% Inhibition": -3, "Z score": 0.32}
{"smiles": "O=C(Nc1cn[nH]c1)[C@@H]1COc2ccccc2O1", "% Inhibition": 3, "Z score": -0.47}
{"smiles": "Cc1ccc(N(C)S(=O)(=O)CC[C@H]2CCCO2)c(C)c1", "% Inhibition": 4, "Z score": -0.42}
{"smiles": "CCN1CC[C@H](NC(=O)N2CCC(O)(Cc3ccccc3F)CC2)C1=O", "% Inhibition": -21, "Z score": 2.16}
{"smiles": "COCCOCC(=O)NC[C@@]12CCCC=C1N(C)C(=O)CC2", "% Inhibition": -4, "Z score": 0.6}
{"smiles": "Cc1nc(CNC(=O)COc2ccccc2Cl)cs1", "% Inhibition": 12, "Z score": -1.35}
{"smiles": "Cn1nc2c(c1CNc1nnc(C(C)(C)C)s1)CCC2", "% Inhibition": -7, "Z score": 1.22}
{"smiles": "Cc1cc(C(=O)N2CCCCC2)c2c(-c3ccccc3F)noc2n1", "% Inhibition": 29, "Z score": -3.24}
{"smiles": "CC(C)(C)[C@H](COc1ccccc1F)NC1CCN(C(N)=O)CC1", "% Inhibition": 6, "Z score": -0.68}
{"smiles": "O=C(C1CC2C=CC1C2)N1CCCc2ccccc21", "note": "(stereo not drawn)", "% Inhibition": -6, "Z score": 0.89}
{"smiles": "CC(C)(C)C(O)CC(CO)Nc1cnccn1", "note": "(stereo not drawn)", "% Inhibition": 14, "Z score": -1.77}
{"smiles": "CCc1nc(C)c([C@H]2CN(C)C[C@@H]2C(=O)N(C)Cc2sccc2C)[nH]1", "% Inhibition": -13, "Z score": 1.22}
{"smiles": "COc1ccccc1NC(=O)N(C1=NCCCCC1)c1cccc(C)c1", "% Inhibition": 9, "Z score": -1.25}
{"smiles": "CCC(C)NC(=O)C(NC(=O)c1ccc(OC)cc1)C1CCN(C(=O)Nc2cccc(Cl)c2)CC1", "note": "(stereo not drawn)", "% Inhibition": -1, "Z score": 0.2}
{"smiles": "CCN(c1ccccc1)S(=O)(=O)c1cc2c3c(c1)CCC(=O)N3CCC2", "% Inhibition": -12, "Z score": 2.38}
{"smiles": "CCS(=O)(=O)Nc1nn(C(C)(C)C)cc1C#N", "% Inhibition": 6, "Z score": -1.17}
{"smiles": "O=C(Nc1ccccc1)c1cccc(NS(=O)(=O)c2ccc3c(c2)OCCCO3)c1", "% Inhibition": 21, "Z score": -2.43}
{"smiles": "COc1ccc(OC)c2sc(N3CCc4ccccc4C3)nc12", "% Inhibition": 1, "Z score": -0.09}
{"smiles": "CCOC(=O)c1c(S(=O)(=O)N2CCC[C@H](C(=O)Nc3ccccc3OC)C2)c(C)n(C)c1C", "% Inhibition": -11, "Z score": 1.75}
{"smiles": "CCc1ccc(-n2nc(CO)c(C(=O)NCc3ccccn3)n2)cc1", "% Inhibition": -7, "Z score": 1.08}
{"smiles": "CCCOCC(=O)NC1(CN2CCCCC2)CCCCC1", "% Inhibition": -3, "Z score": 0.57}
{"smiles": "CC(C)(C)OC(=O)NC1CCCCCC1C(=O)NCc1cccnc1", "note": "(stereo not drawn)", "% Inhibition": 0, "Z score": 0.07}
{"smiles": "CC#CCN1CCN(CC#CC)[C@H](C(=O)N(C)C)C1", "% Inhibition": -16, "Z score": 2.65}
{"smiles": "COc1ccc(-c2noc(CN3C[C@H]4CC[C@H]3C4)n2)cc1", "% Inhibition": -10, "Z score": 0.93}
{"smiles": "Cc1ccc(CN2CCc3oc(C)c(C(=O)NCCN4CCOCC4)c3C2)cc1", "% Inhibition": -5, "Z score": 0.52}
{"smiles": "Cc1nn(C)cc1C1=NO[C@H]2C(=O)N(c3ccc(F)c(Cl)c3)C(=O)[C@@H]12", "% Inhibition": -1, "Z score": 0.11}
{"smiles": "COc1ccccc1Cc1nc2c(c(N3CCOCC3)n1)CN(C(=O)Nc1cccc(Cl)c1Cl)CC2", "% Inhibition": 0, "Z score": 0.06}
{"smiles": "CCO[C@H]1CN(C(=O)c2c(C)noc2C)C[C@@H]1O", "% Inhibition": -19, "Z score": 1.9}
{"smiles": "Cc1ccccc1NC(=O)Nc1cccc(-c2cc3ccccc3[nH]2)c1", "% Inhibition": 23, "Z score": -2.68}
{"smiles": "CCCNC(=O)CNC(=O)c1csc(NC(C)=O)n1", "% Inhibition": -4, "Z score": 0.67}
{"smiles": "CC(C)[C@H](C)N(C)S(=O)(=O)c1c(Cl)cc(Br)cc1Cl", "% Inhibition": -4, "Z score": 0.43}
{"smiles": "CN(CC(=O)N[C@H]1CCCc2ccccc21)S(=O)(=O)c1c[nH]c(C(=O)N2CCCC2)c1", "% Inhibition": -12, "Z score": 1.19}
{"smiles": "CCN(CC)[C@H]1CCN(C(=O)c2cnn(-c3nccc(-c4ccccc4OC)n3)c2C)C1", "% Inhibition": -12, "Z score": 1.86}
{"smiles": "Cc1nc(NCc2ccc(F)cc2)sc1-c1ccn(CCN2CCOCC2)n1", "% Inhibition": -1, "Z score": 0.11}
{"smiles": "CCn1cc(CCN2CCN(C(=O)c3ccco3)CC2)c2cccnc21", "% Inhibition": 6, "Z score": -0.98}
{"smiles": "Cc1n[nH]c(C)c1CCC(=O)Nc1ccc2c(c1)C(=O)N1CCC[C@H]1C(=O)N2", "% Inhibition": 0, "Z score": -0.01}
{"smiles": "Cc1c[nH]c(CN(C)[C@@H](C(=O)O)c2ccc(NC(=O)N3CCCC3)cc2)n1", "% Inhibition": -6, "Z score": 0.91}
{"smiles": "Cc1cc(C)n2ncc(CN(C)Cc3ccncc3C)c2n1", "% Inhibition": -3, "Z score": 0.51}
{"smiles": "CCc1cc(O)nc(CN2CCC[C@H](Cc3nc(C)no3)C2)n1", "% Inhibition": -10, "Z score": 1.4}
{"smiles": "CC(c1ccccc1)C(C)(O)C(=O)NCCC1CCCCO1", "note": "(stereo not drawn)", "% Inhibition": -4, "Z score": 0.32}
{"smiles": "Cc1cccc(C(=O)NC2CCN3CCCC3C2)c1O", "note": "(stereo not drawn)", "% Inhibition": -4, "Z score": 0.41}
{"smiles": "CCn1nc(C)c(C(=O)Nc2cccc(-c3ccc4ccccc4c3)n2)c1Cl", "% Inhibition": -9, "Z score": 1.14}
{"smiles": "CN(Cc1ccco1)C(=O)NC[C@H]1COc2ccccc2O1", "% Inhibition": -25, "Z score": 2.9}
{"smiles": "COC(=O)c1ccc(N(C)[C@@H](C)c2ccccn2)nn1", "% Inhibition": 11, "Z score": -1.21}
{"smiles": "O=C(NC1c2ccccc2CCC1CO)c1cscn1", "note": "(stereo not drawn)", "% Inhibition": -12, "Z score": 1.64}
{"smiles": "O=C1C[C@@H](c2cccc(OC(F)F)c2)c2c(ccc3nsnc23)N1", "% Inhibition": -5, "Z score": 0.59}
{"smiles": "C[C@@H]1CN(C(=O)N[C@H]2CC[C@H](c3nccc(O)n3)CC2)C[C@H](C)O1", "% Inhibition": -5, "Z score": 0.95}
{"smiles": "CCn1nc(C)c2ccnc(N3CCC(C(=O)N4CCN(c5cccc(OC)c5)CC4)CC3)c21", "% Inhibition": -13, "Z score": 2.13}
{"smiles": "Cc1nnc(N2CCN(c3ccccc3F)CC2)c2c1nnn2Cc1ccc(F)cc1", "% Inhibition": -14, "Z score": 1.6}
{"smiles": "CCc1nc(Cn2ccc(=O)n(C)c2=O)cs1", "% Inhibition": -13, "Z score": 2.49}
{"smiles": "CC1CN(S(=O)(=O)Nc2cccc3c2OCCO3)C(C)CO1", "note": "(stereo not drawn)", "% Inhibition": -9, "Z score": 1.28}
{"smiles": "C=CCN(Cc1csc(COc2ccc(C)c(C)c2)n1)S(=O)(=O)c1ccc(OC)cc1", "% Inhibition": 1, "Z score": -0.1}
{"smiles": "CCn1c(C)ccc(C(=O)NC2(c3cc(F)ccc3F)CC2)c1=O", "% Inhibition": -3, "Z score": 0.4}
{"smiles": "CC(C)[C@H](Cn1cncn1)NC(=O)c1ccccc1Br", "% Inhibition": 5, "Z score": -0.68}
{"smiles": "COc1ccccc1Oc1ccc(S(=O)(=O)N2CCCCC2)cc1NCC(=O)N1CCNC1=O", "% Inhibition": -10, "Z score": 1.58}
{"smiles": "CCN(CC)c1ccc(N2C(=O)c3c(Br)c(Br)c(Br)c(Br)c3C2=O)cc1", "% Inhibition": 35, "Z score": -4.45}
{"smiles": "CC(=O)Nc1ccc(C(=O)N2CCO[C@H](C3CCC3)C2)nc1", "% Inhibition": 0, "Z score": 0.08}
{"smiles": "Cn1cnnc1[C@H]1CCCN(S(=O)(=O)N2CCCCC2)C1", "% Inhibition": -6, "Z score": 0.88}
{"smiles": "O=C(CC[C@@H]1NC(=O)c2ccccc2NC1=O)Nc1ccc(F)cc1", "% Inhibition": -8, "Z score": 1.03}
{"smiles": "CN(C)CCN(C(=O)CCc1ccncc1)C1CCCC1", "% Inhibition": 2, "Z score": -0.35}
{"smiles": "Cc1nn(C)c(C)c1-c1ccnc(N(C)Cc2nc(-c3ccccn3)no2)n1", "% Inhibition": -20, "Z score": 2.71}
{"smiles": "COCCn1cc(NC(=O)N(CC2CCCCC2)C2CC2)cn1", "% Inhibition": 1, "Z score": -0.14}
{"smiles": "CC(C(C)S(C)(=O)=O)N(C)C(=O)NCc1cccnc1", "note": "(stereo not drawn)", "% Inhibition": -5, "Z score": 0.39}
{"smiles": "Cc1nc(O)c(Cl)c(NCCN2CCC(CO)CC2)n1", "% Inhibition": -6, "Z score": 0.83}
{"smiles": "COCCC[C@H]1CCCCN1C1CCN(C2CCCC2)CC1", "% Inhibition": 4, "Z score": -0.47}
{"smiles": "O=C(CC1CC1)N1CCC[C@@H]1CCc1noc(-c2cccnc2)n1", "% Inhibition": -10, "Z score": 1.92}
{"smiles": "O=C(COc1ccc(-c2ccccc2)cc1)NCCC1=CCCCC1", "% Inhibition": 9, "Z score": -1.3}
{"smiles": "Cc1nc(N)sc1CC(=O)NC1(CO)CCCCCC1", "% Inhibition": 1, "Z score": -0.13}
{"smiles": "O=C(COc1ccc(Cl)cc1Cl)NOCc1ccccc1", "% Inhibition": -18, "Z score": 3.33}
{"smiles": "CCCOC(=O)N[C@@H](CC)COC(=O)Nc1cc(C)ccc1C", "% Inhibition": -2, "Z score": 0.3}
{"smiles": "COc1cc(CN2CCC[C@H](N(C)CCc3ccccc3)C2)ccc1O", "% Inhibition": 6, "Z score": -0.81}
